Laboratory results published in PubChem BioAssay AID485313 (National Center for Advancing Translational Sciences (NCATS), 2010).
Out of some 320,000 compounds screened, about 7,600 (2.4%) were called active. This list was built around the results that the source calls inconclusive (neither active nor inactive); the mix of calls is not that of the screen. Calls come from the whole dose curve; as a rule, active = well fitted activation curve with a large enough effect; inconclusive = small, poorly fitted or top-dose-only effect; inactive = no such curve, though single readings can be large or run the other way. No potency is given beside an inconclusive call; the fits are too rough.
Potency is the fitted concentration of half-maximal effect; tags give direction and shape of the fitted curve.

Test: qHTS Assay for NPC1 Promoter Activators; note: nearly all actives have a fitted effect of over 60% in size;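 for activation: reporter is driven by a mutant NPC1 promoter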
Details: Huh7 NPC1 promoter luciferase reporter, 24 h; series mostly up to 9.22 µM
Outline: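 In 1536-well qHTS, Huh7 cells harboring an NPC1 promoter–luciferase construct received compound for 24 h; activation was quantified by luminescence following luciferase reagent addition.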
With `O=C(/C=C/c1ccco1)Nc1ccc2c(c1)OCCO2` the Potency was active: 2.24 µM.
For `COc1ccc(Nc2nnc(SCC(=O)c3cc4ccccc4o3)s2)cc1`, the Potency was “inactive”.
With `CCOC(=O)N1CCN(c2ccc(C(=O)c3ccccc3)cc2F)CC1` the Potency was inconclusive [activator, single point].
With `Cc1ccc(NC(=O)NC2CCCCCCC2)cc1` the Potency was active: 1.26 µM.
With `Fc1ccccc1CSc1nc2ncccc2[nH]1` the Potency was inconclusive [activator, partial curve].
For `Cc1cccc2sc(NNC(=O)c3cc(=O)c4ccccc4o3)nc12`, the Potency was inconclusive [activator, partial curve].
In the case of `O=c1oc(CCO)cc2ccc(-c3ccc4[nH]ccc4c3)cc12`, the Potency is reported as inconclusive [activator, single point].
With `O=C(Nc1ccccc1)Nc1ccc2snnc2c1` the Potency was inconclusive [activator, partial curve].
In the case of `CCOC(=O)c1ccc(N/C=C2\CCCCC2=O)cc1`, the Potency is reported as active: 3.98 µM.
For `CNC(=O)c1cc2c(ccc3ccccc32)o1`, the Potency was inconclusive [activator, single point].
For `CCN(c1ccccc1)S(=O)(=O)c1ccc(NC(=S)NC(=O)c2cccs2)cc1`, the Potency was “inactive”.
In the case of `Cc1cccc(NS(=O)(=O)c2cccc(C(=O)NNC(=O)c3ccccc3O)c2)c1`, the Potency is reported as “inactive”.
With `C/C(=N/NC(=O)c1ccc(C)s1)c1ccncc1` the Potency was inconclusive [activator, single point].
For `CC(C)[C@@H](CO)NC(=O)c1ccc2c3n(nc2c1)-c1ccc(Cl)cc1CO3`, the Potency was active: 1.41 µM.
With `NC(=O)COc1ccc(-n2cnnn2)cc1` the Potency was “inactive”.
With `Cc1ccc(-c2cc(C(=O)N3CCOCC3)no2)cc1` the Potency was active: 0.316 µM.
With `CCc1cc(CNC(=O)CCc2nnc(CCCc3ccccc3)o2)on1` the Potency was inconclusive [activator, partial curve].
With `Cc1cc(C(=O)OCC(=O)NC(=O)c2cccn2C)c2ccccc2n1` the Potency was “inactive”.
For `Cn1cnc2cc(OC(=O)c3ccccc3)ccc21`, the Potency was “inactive”.
In the case of `CC(C)(C)c1ccc(Cn2c(=O)cnc3ccccc32)cc1`, the Potency is reported as “inactive”.
In the case of `O=C(Nc1cccnc1)c1ccc(Oc2ccccc2)cc1`, the Potency is reported as inconclusive [activator, single point].
In the case of `COc1cccc(-c2cc(C(=O)N3CCCCC3C)no2)c1` (stereo not given), the Potency is reported as active: 1.58 µM.
In the case of `Cc1nc2cc(C(=O)OCC(=O)Nc3ccc(C#N)cc3)ccc2n1-c1ccccc1`, the Potency is reported as “inactive”.
In the case of `CCOC(=O)N1CCN(C(=O)CSCC(=O)Nc2nc(-c3ccc4c(c3)OCO4)cs2)CC1`, the Potency is reported as inconclusive [activator, single point].
With `Cc1ccc(C(=O)c2ccc([N+](=O)[O-])cc2)cc1` the Potency was “inactive”.
With `O=C(O)c1ccc(N=Nc2c(-c3ccccc3)[nH]oc2=O)cc1` the Potency was inconclusive [activator, single point].
With `O=C(NC(Cc1ccccc1)C(=O)O)/C(=C/c1ccccc1)NC(=O)c1cccc(Br)c1` (stereo not given) the Potency was “inactive”.
With `COC(=O)c1ccc(N2NC(=O)/C(=C/c3cc(OC)c(OC)c(OC)c3)C2=O)cc1` the Potency was “inactive”.
For `c1coc(CNc2nc(-c3cccs3)cs2)c1`, the Potency was inconclusive [activator, single point].
In the case of `O=C(Nc1ccc2c(c1)OCCO2)C(=O)NC1CC1`, the Potency is reported as inconclusive [activator, partial curve].
For `CC(=O)NCc1ccc(-c2csc(-c3cccs3)n2)cc1`, the Potency was active: 2 µM.
For `O=[N+]([O-])c1ccc(N/N=C/c2ccc[nH]2)cc1`, the Potency was “inactive”.
For `O=c1[nH]c(CSc2ccccn2)nc2ccccc12`, the Potency was active: 2.51 µM.
In the case of `O=C(c1cc(-c2ccc(F)cc2)on1)N1CCOCC1`, the Potency is reported as active: 1.12 µM.
With `COc1ccc(N2C(=O)c3ccccc3NC2c2ccc(OC)c(COc3ccccn3)c2)cc1` (stereo not given) the Potency was inconclusive [activator, single point].
With `Cc1c(C(=O)Oc2ccc(-c3cnc4ccccc4n3)cc2)cccc1[N+](=O)[O-]` the Potency was inconclusive [activator, single point].
With `Cc1ccc(/C=[N+](\[O-])c2ccc(N(C)C)cc2)c2nsnc12` the Potency was inconclusive [activator, partial curve].
With `O=C(Nc1ccc(N2CCCCC2)cc1)c1cccnc1` the Potency was inconclusive [activator, partial curve].
With `Cc1nc(-c2cccc(NS(=O)(=O)c3cccc4ccccc34)c2)cs1` the Potency was “inactive”.
For `Cc1nc2cc(-c3ccc(Br)cc3)[nH]n2c(=O)c1Cl`, the Potency was inconclusive [activator, partial curve].
For `COc1ccc(C(=O)NCCCNC(=O)c2cnccn2)cc1`, the Potency was “inactive”.
With `O=C(O)c1ccccc1NN=C1CCCCC1` the Potency was inconclusive [activator, single point].
In the case of `Cc1cc(C)c2c(N)c(C(=O)NN3CC(=O)N(c4ccccc4)CC3=O)sc2n1`, the Potency is reported as “inactive”.
In the case of `COc1ccc2nc3oc(C(=O)N4CCCCC4)cc3cc2c1`, the Potency is reported as active: 3.16 µM.
With `CC(=O)CSc1nnc2c3ccccc3nc(C(C)(C)C)n12` the Potency was “inactive”.
With `COc1cccc(Nc2nn3c(=O)c4ccccc4nc3s2)c1` the Potency was inconclusive [activator, single point].
In the case of `COc1cc(/C=N/O)ccc1OCc1ccccc1Cl`, the Potency is reported as active: 3.16 µM.
In the case of `CC1(C)NC(=O)N(CCCOc2ccc(Br)cc2Cl)C1=O`, the Potency is reported as active: 2.82 µM.
In the case of `O=C(NCCc1c[nH]c2ccccc12)c1ccccc1`, the Potency is reported as inconclusive [activator, single point].
In the case of `COc1ccc(-c2nc(-c3ccncc3)no2)cc1OC`, the Potency is reported as inconclusive [activator, single point].
For `c1ccc2c(c1)NC1(CCCCCC1)n1c-2nc2ccccc21`, the Potency was inconclusive [activator, partial curve].
For `Cc1cccc(OCc2nnc(NC(=O)c3cccs3)s2)c1`, the Potency was “inactive”.
With `O=C(Nc1nnc(CSCc2ccc(Cl)cc2)s1)c1cccc([N+](=O)[O-])c1` the Potency was “inactive”.
In the case of `CCCCOC(=O)Nc1ccc(C(C)C)cc1`, the Potency is reported as inconclusive [activator, partial curve].
In the case of `Cc1cc(C)nc(Nc2nc(-c3ccccc3)cs2)n1`, the Potency is reported as inconclusive [activator, partial curve, poor fit].
With `O=C(Nc1ccc2oc(-c3cccc(F)c3)nc2c1)c1ccccc1F` the Potency was inconclusive [activator, partial curve].
In the case of `CC1CCCCN1C(=O)Cn1c(=O)oc2cc(S(=O)(=O)N3CCCC3)ccc21` (stereo not given), the Potency is reported as “inactive”.
In the case of `O=C(CSc1nnc(Cc2ccccc2)o1)c1cc(F)ccc1F`, the Potency is reported as “inactive”.
For `CCCCOc1ccc(-c2nc(SCC(N)=O)n[nH]2)cc1`, the Potency was inconclusive [activator, partial curve].
For `COc1ccc(C(=O)Nc2cccc3ccccc23)cc1`, the Potency was inconclusive [activator, single point].
With `CCOc1ccccc1N1CCN(C(=O)c2c(Cl)cnn2C)CC1` the Potency was “inactive”.
For `NC(=O)c1ccsc1NC(=O)c1coc2ccccc2c1=O`, the Potency was inconclusive [activator, single point].
With `COc1ccc(C(=O)Nc2nnc(SCC(=O)NC3CCCC3)s2)c(OC)c1` the Potency was active: 0.1 µM.
In the case of `Cc1nnc(SCC(=O)c2ccc(Cl)cc2)n(N)c1=O`, the Potency is reported as active: 0.794 µM.
For `Cc1cccc(C)c1OCc1cc(C(=O)N2CCC(c3ccccc3)CC2)no1`, the Potency was inconclusive [activator, partial curve].
In the case of `Oc1ccc(-c2nnc(SCc3ccccc3)o2)cc1`, the Potency is reported as inconclusive [activator, single point].
With `O=C(N/N=C/C(Br)=C\c1ccccc1)c1n[nH]c2c1CCC2` the Potency was inconclusive [activator, single point].
With `Cc1ccc(NC(=O)Cn2nnc(C(=O)NCc3cccs3)c2N)cc1F` the Potency was inconclusive [activator, single point].
For `O=C(NCc1ccco1)c1ccc(Cl)nc1`, the Potency was “inactive”.
With `CC(=O)N(C)c1ccc(NC(=O)Cc2cccs2)cc1` the Potency was inconclusive [activator, single point].
With `Cc1ccc2c(COC(=O)c3ccccc3Cl)cc(=O)oc2c1` the Potency was inconclusive [activator, single point].
For `COc1ccc(-c2coc3cc(OC)cc(O)c3c2=O)cc1`, the Potency was active: 0.631 µM.
With `CC(C)C(NC(=O)c1ccc([N+](=O)[O-])cc1Cl)C(=O)N1CCCC1` (stereo not given) the Potency was inconclusive [activator, single point].
For `COC(=O)c1ccc(OCc2cc(=O)n3ccsc3n2)cc1`, the Potency was inconclusive [activator, partial curve].
In the case of `Cc1ccc(C(=O)Nc2cccc(C(=O)NCc3ccco3)c2)cc1`, the Potency is reported as inconclusive [activator, single point].
With `Cc1[nH]nc(SCC(=O)N2CCCCC2)c1[N+](=O)[O-]` the Potency was inconclusive [activator, single point].
With `Cc1nc(NC(=O)c2ccccc2)sc1-c1csc(N)n1` the Potency was inconclusive [activator, single point].
In the case of `CCOc1ccc(S(=O)(=O)Nc2ccc(C(=O)NCc3ccncc3)cc2)cc1`, the Potency is reported as “inactive”.
In the case of `CCC(=O)c1ccc(OCC(=O)Nc2cc(S(=O)(=O)N3CCCCC3)ccc2N2CCN(CC)CC2)cc1`, the Potency is reported as “inactive”.
With `CC(=C/c1ccccc1)/C=C1/SC(N2CCOCC2)=NC1=O` the Potency was inconclusive [activator, single point].
